The campaign covered roughly 50,000 compounds. About 800 (1.6%) showed an effect of 50% or more. The list shows a part of the results.
These compounds were tested against Bcl-2-like protein 10 (Homo sapiens) (UniProt Q9HD36) (assay: TR3 peptide-Bcl-B binding displacers, biochemical primary FP assay, phenotype converters (AID 1240;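 further: 0% = Bcl-B with tracer peptide and DMSO and 100% = tracer peptide lacking Bcl-B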)). Settings: GST-Bcl-B / FITC-TR3 peptide fluorescence polarization; stronger effect = higher value; compound at 3.75 mg/L.
UniProt Q9HD36, sequence (Q9HD36 whole entry, looked up): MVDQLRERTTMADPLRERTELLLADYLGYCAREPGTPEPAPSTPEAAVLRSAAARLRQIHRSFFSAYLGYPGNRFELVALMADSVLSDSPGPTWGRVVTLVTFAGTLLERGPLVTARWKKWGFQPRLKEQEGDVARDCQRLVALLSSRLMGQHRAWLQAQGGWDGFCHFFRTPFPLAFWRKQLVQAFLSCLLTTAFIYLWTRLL

Row | Structure (SMILES) | displacement [%]
1 | CC(=O)Nc1ccc(NS(=O)(=O)c2cc(C)ccc2C)cc1 | 4.7
2 | O=C1C=C(NCc2ccc3c(c2)OCO3)CC(c2ccccc2)C1 (centres undefined) | -4.6
3 | CNC(=O)CCC(=O)Nc1cc(Cl)ccc1C | -10.4
4 | O=C1CC(O)(C(F)(F)C(F)F)Oc2ccc(Cl)cc21 (centres undefined) | 12.8
5 | CCC1(C)Cc2ccccc2-c2nc3n(c(=O)c21)CC(C(=O)O)S3 (centres undefined) | -4.7
6 | COc1cc(C2/C(=C(\O)c3ccccc3)C(=O)C(=O)N2CCCCCC(=O)O)ccc1O (centres undefined) | 14.9
7 | CC1=NN(c2ccc(S(N)(=O)=O)cc2)C(=O)/C1=C/c1ccc(-c2ccc(Cl)cc2Cl)o1 | -6.3
8 | CS(=O)(=O)N(Cc1ccco1)CC(O)Cn1c2ccccc2c2ccccc21 (centres undefined) | 10.9
9 | Cc1ccc(-c2cc(C(=O)N/N=C/c3c(C)nn(-c4ccccc4)c3C)[nH]n2)cc1 | -3.8
10 | Cc1ccc(OCCSc2nc3ccccc3n2CCO)c(C(C)C)c1 | -4.7
11 | CCOc1ccc(NC(=S)NC(NC(=O)C(c2ccccc2)c2ccccc2)C(Cl)(Cl)Cl)cc1 (centres undefined) | 13.1
12 | COc1ccc(NC(=O)C2=C(C)NC(=S)NC2c2c(OC)ccc3ccccc23)cc1 (centres undefined) | -4.5
13 | CC1=NN(c2cccc(F)c2)C(=O)/C1=C/c1cccs1 | -14.5
14 | O=C(CN1C(=O)/C(=C/c2ccccc2)SC1=S)Nc1cccc(Br)c1 | 11.9
15 | O=C(COc1ccccc1Cl)Nc1cc(C(F)(F)F)ccc1Cl | 19.1
16 | CCN(CC)c1ccc(/C=N/Nc2nn[nH]n2)c(O)c1 | -9
17 | Nc1ccccc1SC1=C([N+](=O)[O-])CS(=O)(=O)C1 | 13.5
18 | CSc1ccc(S(=O)(=O)N(CC(=O)N2CCN(c3ccccc3)CC2)c2ccc(C)cc2)cc1 | -0.2
19 | COc1ccc(C(=O)Nc2cc(C(F)(F)F)cc(C(F)(F)F)c2)cc1 | 17.3
20 | O=C(CSC(=S)N1CCCCC1)c1ccc([N+](=O)[O-])cc1 | -8
21 | CCc1cccc(CC)c1NC(=O)c1cccnc1 | -4.5
22 | CC(C)OC(=O)c1c(N)sc2c1CCCCC2 | -4.7
23 | CC1(O)N(CC(=O)c2cccs2)C(=O)OC12CCCCC2 (centres undefined) | -11

Row | Structure (SMILES) | displacement [%]
24 | CCOc1ccc(NC(=O)c2c(Cl)cccc2Cl)cc1 | 7.9
25 | O=C(CCc1ccccc1)N1N=C(c2ccc(Cl)cc2)CC1(O)C(F)(F)F (centres undefined) | -24.1
26 | COc1cccc(C(=O)Nc2ccc(Cl)c(C(F)(F)F)c2)c1 | 7.6
27 | COc1ccc(OC)c(NC(=O)C(C)Oc2ccccc2)c1 (centres undefined) | 8.6
28 | O=C1NC(=S)N(c2ccc(F)cc2)C(=O)/C1=C/c1ccc(F)cc1 | 1.4
29 | CCC(C(=O)N1CCCC1)c1ccccc1 (centres undefined) | 10
30 | COc1cc(/C=N\NC(=O)CNc2ccccc2C)ccc1OC(C)=O | 7.9
31 | CCOc1ccc(-c2nnc(NC(=O)Nc3ccccc3)s2)cc1 | 14.2
32 | CC1CN(S(=O)(=O)c2ccc3c(c2)C(=NO)c2cc(S(=O)(=O)N4CC(C)OC(C)C4)ccc2-3)CC(C)O1 (centres undefined) | -12.8
33 | Cc1ccc(NC(=O)COc2ccc(Cl)cc2Cl)nc1 | -9.2
34 | CC1=C(C(=O)OCCc2ccccc2)C(c2cc([N+](=O)[O-])ccc2Cl)CC(=O)N1 (centres undefined) | -5.4
35 | O=C(CNC(=O)c1ccco1)c1ccc(F)cc1 | -5
36 | Cc1ccc(C(=O)Cn2c(NCCCO)nc3ccccc32)cc1 | 9.9
37 | CC1CCCCN1S(=O)(=O)c1ccc(Br)c2ccccc12 (centres undefined) | -3.3
38 | O=c1[nH]c(=O)n(-c2ccccc2Cl)c(O)c1C=NCc1ccccc1F | 6.3
39 | Cc1ccc(C(=O)N/C(=C\c2ccc(Cl)cc2)C(=O)NCCCN2CCOCC2)cc1 | 7.3
40 | O=[N+]([O-])c1ccc(C=Nc2cccc(Cl)c2)cc1 | -5.1
41 | O=[N+]([O-])c1cccc(-c2noc(-c3ccc(-c4ccccc4)cc3)n2)c1 | 4.5
42 | COc1cccc(/C=C2\SC(N3CCCCC3)=NC2=O)c1OC | -1.8
43 | CSc1nc(-c2ccccc2)c(C#N)c(=O)n1C | -3.9
44 | C=CCOc1cccc(/C=N/NC(=O)CC(=O)NC2CCCCC2)c1 | -2.6
45 | O=C(NC1CCN(Cc2ccccc2)CC1)c1ccc(Cl)cc1Cl | -2.5
46 | CCOc1cc(/C=C2\SC(=S)NC2=O)ccc1OCc1c(C)no[n+]1[O-] | 117

Row | Structure (SMILES) | displacement [%]
47 | O=C(COc1ccccc1[N+](=O)[O-])N/N=C/c1cc2c(cc1Br)OCO2 | 3.9
48 | OCCc1ccc(-c2ccc(Cl)cc2)o1 | 10.5
49 | CC1=NN(c2ccc(C)cc2)C(=O)/C1=C/c1ccc(-c2cccc(C(=O)O)c2)o1 | 32.8
50 | COc1cc(NC(=O)c2ccccc2OC)ccc1NC(=O)c1ccco1 | -2.7
51 | Cc1ccc(-c2csc(Nc3ccc(O)cc3)n2)c(C)c1 | -3.3
52 | CCOc1ccc(NC(=O)/C=C/c2ccc(OC)c(Br)c2)cc1 | 13.6
53 | CCn1c2ccccc2c2cc(CNC3CCCCC3)ccc21 | -0.9
54 | CC1=NN(c2ccccc2)C(=O)/C1=C\c1ccc(-c2ccc(C)cc2[N+](=O)[O-])o1 | -1.9
55 | CC(=O)c1ccc(NC(=O)c2ccc(Cl)c([N+](=O)[O-])c2)cc1 | -11.3
56 | Cc1ccccc1-c1nc2cc(NC(=O)c3cccc4ccccc34)ccc2o1 | -7.3
57 | O=C1CC(c2ccccc2)CC2=C1C(c1ccc(Cl)c(Cl)c1)Nc1ccccc1N2 (centres undefined) | -7.8
58 | CCOc1cc(C(=O)Nc2cccc3c2C(=O)c2ccccc2C3=O)cc(OCC)c1OCC | -7.5
59 | NC(=O)c1nn2c(c1Br)NC(c1ccccc1)CC2C(F)(F)F (centres undefined) | 1.6
60 | COc1ccc(-n2sc3c(c2=S)-c2cc(C)ccc2N(C)C3(C)C)cc1OC | -2
61 | CCN(CC)CCOc1ccc(Cl)c(C)c1 | -1.1
62 | COc1ccc(-c2noc(COc3cc(C)c(Cl)c(C)c3)n2)cc1 | -1.3
63 | CC1=C(C(=O)OC(C)C)C(c2ccc(F)cc2)NC(=O)N1 (centres undefined) | 6.9
64 | Cc1ccc2nc(Nc3ccccc3)c(/C=N/O)c(=O)n2c1 | 2.6
65 | COc1cc(C(=O)NCCOc2ccccc2Cl)cc(OC)c1OC | 9.6
66 | COC(=O)c1ccc(OCC(O)CN(C)C)cc1 (centres undefined) | 15.9
67 | CC(C)(C)c1ccc(S(=O)(=O)N2CCN(c3ccccc3)CC2)cc1 | -5.3
68 | O=C1C2C(c3ccccc3Cl)OC3(C(=O)c4ccccc4C3=O)C2C(=O)N1c1ccccc1C(F)(F)F (centres undefined) | 6.2
69 | O=C(N/C(=C/c1cccs1)C(=O)N1CCCCC1)c1ccccc1 | 8.5
